Laboratory results as given in patent publication US12116397B2, “IL-IR-I binding polypeptide” (Swedish Orphan Biovitrum AB (publ), priority 2017, dated 2024).

Legend:
[1] = target: T1, hIL-1R-I (Homo sapiens, UniProt P14778); assay: Biacore affinity/kinetic analysis of His6-tagged Z variants, human IL-1R-I; assay type: binding
T1 construct: purchased R&D Systems 269-1R/CF
T1 sequence (P14778 18-569): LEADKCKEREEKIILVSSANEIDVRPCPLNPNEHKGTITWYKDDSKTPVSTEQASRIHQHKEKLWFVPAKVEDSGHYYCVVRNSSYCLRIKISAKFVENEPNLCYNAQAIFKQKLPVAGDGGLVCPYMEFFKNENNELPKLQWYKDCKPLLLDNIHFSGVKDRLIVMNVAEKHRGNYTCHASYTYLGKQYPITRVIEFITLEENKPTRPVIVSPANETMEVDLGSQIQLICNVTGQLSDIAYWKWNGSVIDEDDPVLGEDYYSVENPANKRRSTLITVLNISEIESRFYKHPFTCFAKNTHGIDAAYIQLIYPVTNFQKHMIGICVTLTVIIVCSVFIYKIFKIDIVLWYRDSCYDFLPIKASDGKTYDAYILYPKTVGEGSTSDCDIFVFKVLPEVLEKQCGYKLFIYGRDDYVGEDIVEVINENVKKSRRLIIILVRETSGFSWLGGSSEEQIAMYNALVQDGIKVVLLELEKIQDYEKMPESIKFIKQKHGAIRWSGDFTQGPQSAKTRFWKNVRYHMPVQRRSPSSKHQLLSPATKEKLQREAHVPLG

[2] = target: cynomolgus IL-1R-I; assay: Biacore affinity/kinetic analysis of His6-tagged Z variants, cynomolgus IL-1R-I; assay type: binding
Experimental: Affinities (KD) for human and cynomolgus IL-1R-I were determined for His6-tagged Z variants using a Biacore 2000 instrument (GE Healthcare). hIL-1R-I or cIL-1R-I-His6 was immobilized on the carboxylated dextran layer in different flow cells of a CM5 chip (GE Healthcare, cat. no. BR100012). The immobilization was performed using amine coupling chemistry according to the manufacturer's protocol. Acetate pH 4.5 (GE Healthcare, cat. no. BR100350) was used for ligand dilution and HBS-EP (GE Healthcare, cat. no. BR100188) was used as running buffer. One flow cell surface on the chip was activated and deactivated for use as blank during analyte injections. In the kinetic experiment, HBS-EP was used as running buffer, the flow rate was 50 μl/min and the temperature was 25° C. The analytes, i.e. the Z variants, were each diluted in HBS-EP buffer to final concentrations of 40 nM and 10 nM, and were injected over the target chip surfaces for 2 min, followed by dissociation in running buffer for 8 min. Kinetic constants were calculated from the obtained sensorgrams using a 1:1 binding model, in the BiaEvaluation software 4.1 (GE Healthcare).
The kinetic constants (kon and koff) and affinities (KD) for human and cynomolgus IL-1R-I were determined for His6-tagged Z variants using a Biacore 2000 instrument (GE Healthcare). The experiment was run essentially as described in Example 2, using 100, 10 and 1 nM of the Z variants. The analyte injection time was 3 min followed by 15 min dissociation and 2×5 s glycine pH 3.0 (GE Healthcare, cat. no. BR100357), supplemented with 0.5 M NaCl, was used for regeneration of the surfaces between the cycles. Kinetic constants were calculated from the obtained sensorgrams of two or three concentrations of the respective Z variant, using a 1:1 binding model in the BiaEvaluation software 4.1 (GE Healthcare). His6-tagged Z12967 was included in the assay for comparison.
The kinetic constants (kon and koff) and affinities (KD) for human and cynomolgus IL-1R-I were determined for His6-tagged Z variants using a Biacore 2000 instrument (GE Healthcare). The experiment was run essentially as described in Example 5, using 48, 12, 3 and 0.75 nM of the Z variants. The analyte injection time was 3 min followed by 6 min dissociation and 2×5 s glycine pH 3.0, supplemented with 0.5 M NaCl, was used for regeneration of the surfaces between the cycles. Kinetic constants were calculated from the obtained sensorgrams of three or four concentrations of the respective Z variant, using a 1:1 binding model in the BiaEvaluation software 4.1 (GE Healthcare). His6-tagged Z12967 (SEQ ID NO:9), Z16065 (SEQ ID NO:268), Z16163 (SEQ ID NO:359) and Z18557 (SEQ ID NO:1205) were included in the assay for comparison.

[3] = tested on: TF-1 cells; assay: In vitro IL-1β neutralization assay (TF-1 cell assay); assay type: cell-based
[4] = Circular dichroism (CD) spectroscopy analysis, melting temperature and refolding; assay type: physicochemical; conditions: for Melting temperatures (Tm): His6-tagged Z variants, CD variable temperature measurement; for Tm (° C.): His6-tagged Z variants 0.5 mg/ml in PBS, 221 nm, 20 to 90° C. (Example 2)
[5] = target: T2, hIL-1R-I-Fc (Homo sapiens, UniProt P14778); assay: EC50 analysis of Z variants by ELISA target titration; assay type: binding; conditions: periplasmic Z-ABD; hIL-1R-I-Fc 100 to 0.01 nM; first matured library (Example 4)
T2 construct: purchased Creative BioMart IL1 RI-771H
T2 sequence (P14778 with tags, fused parts or gaps limits assumed): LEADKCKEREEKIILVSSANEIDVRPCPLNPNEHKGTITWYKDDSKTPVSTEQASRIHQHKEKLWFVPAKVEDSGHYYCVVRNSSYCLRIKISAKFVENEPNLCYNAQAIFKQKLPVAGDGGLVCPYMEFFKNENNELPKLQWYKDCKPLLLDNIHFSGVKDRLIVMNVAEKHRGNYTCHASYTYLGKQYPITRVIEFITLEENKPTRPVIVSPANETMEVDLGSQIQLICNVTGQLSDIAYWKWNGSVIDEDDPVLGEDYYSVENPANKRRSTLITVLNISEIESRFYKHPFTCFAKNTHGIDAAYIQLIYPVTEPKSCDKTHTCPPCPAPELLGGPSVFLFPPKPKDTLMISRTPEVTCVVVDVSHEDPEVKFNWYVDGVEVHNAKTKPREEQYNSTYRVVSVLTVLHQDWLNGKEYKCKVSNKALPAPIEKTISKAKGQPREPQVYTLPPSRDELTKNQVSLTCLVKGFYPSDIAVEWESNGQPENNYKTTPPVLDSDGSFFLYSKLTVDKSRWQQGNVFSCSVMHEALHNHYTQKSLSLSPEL

[6] = target: T1, hIL-1R-I; assay: Biacore kinetic screening of Z-ABD periplasmic extracts captured on anti-ABD antibody; assay type: binding; conditions: Z-ABD periplasmic extracts captured on anti-ABD antibody, single concentration of hIL-1R-I, Table 18
Experimental: The binding of Z variants to human IL-1R-I was analyzed in a kinetic screening using a Biacore T200 instrument. A polyclonal goat anti-ABD antibody (goat anti-ABD) was immobilized on CM5 chip surfaces basically as described for other proteins in Example 2. For the kinetic screening, analytes were injected in two steps. First, a Z-ABD (ABD001, SEQ ID NO:1660) periplasmic extract was injected over the surface at 5 μl/min for 1 min. As a second step, 100 nM hIL-1R-I was injected at 30 μl/min for 2 min, followed by 2 min of dissociation in running buffer HBS-EP. Glycine-HCl pH 2.0 (cat. no. BR100355, GE Healthcare) was used for regeneration of the antibody surfaces between the cycles. The temperature of the assay was 25° C. Before performing the kinetic analyses, the signal from 100 nM hIL-1R-I injected over a reference surface containing goat anti-ABD but no Z-ABD sample was subtracted from the sensorgram of Z-ABD binding to hIL-1R-I. Rough screening affinities (KD) were calculated from the reference subtracted 100 nM hIL-1R-I response using a 1:1 binding model of the BiaEvaluation software 4.1 (GE Healthcare). […]
The binding of Z variants to human IL-1R-I was analyzed in a kinetic screening, using a Biacore 2000 instrument, essentially as described in Example 4, but with the exception that Z-ABD (ABD001, SEQ ID NO:1660) periplasmic extracts were injected during 2 min. […]

[7] = His6-Z polypeptides, 100, 10 and 1 nM (Example 5)
[8] = His6-Z polypeptides, 100, 10 and 1 nM (Example 5), read-out: KD
[9] = His6-tagged, 48, 12, 3 and 0.75 nM, comparison variants (Example 9), read-out: KD to human IL-1R-I
[10] = His6-Z polypeptides, IL-1β inhibition in TF-1 cell assay, Table 12 (first matured library)
[11] = His6-tagged, TF-1 cell assay (Example 5)
[12] = His6-tagged, TF-1 cell assay, comparison variants (Example 9)
[13] = His6-Z polypeptides binding to human IL-1R-I, Biacore, Table 19
[14] = His6-Z polypeptides binding to human IL-1R-I, Biacore, Table 19, read-out: KD
[15] = His6-tagged (Example 9), read-out: KD of cynomolgus IL-1R-I binding
[16] = His6-Z polypeptides, IL-1β inhibition in TF-1 cell assay, Table 20 (Example 9)
[17] = His6-Z polypeptides, Biacore 2000, 25° C., 40 nM and 10 nM (Example 2), read-out: Human IL-1R-I KD
[18] = His6-Z polypeptides, 0.6 nM IL-1β, 72 h (Example 2)

| Substance | koff [1, 7] [s⁻¹] | kon [1, 7] [M⁻¹ s⁻¹] | pKd [1, 8] | pIC50 [3, 10] | koff [1, 13] [s⁻¹] | kon [1, 13] [M⁻¹ s⁻¹] | pKd [1, 14] | pKd [2, 15] | Melting temperatures (Tm) ([4]; Table 13) [°C] | Melting temperatures (Tm) ([4]; Table 21) [°C] | further results |
| --- | --- | --- | --- | --- | --- | --- | --- | --- | --- | --- | --- |
| Z15840: IL-1R-I binding Z variant (VDAKYAKEVEVAQMEIFALPNLTRKQYTAFIRKLLDDPSQSSELLSEAKKLNDSQAPK; Engineered IL-1R-I binding polypeptide) | – | – | – | – | – | – | – | – | – | – | pEC50 [5]: 9.60; pKd [6]: 8.16 |
| Z18754: IL-1R-I binding Z variant (VDAKYAKEVEEIQMEIFRLPNLTRRQYTAFIRKLLDDPSQSSELLSEAKKLNDSQAPK; Engineered IL-1R-I binding polypeptide) | – | – | – | – | 0.006 | 7e+07 | 10.07 | 8.70 | – | 63 | pIC50 [3, 16]: 9.22 |
| Z18760: IL-1R-I binding Z variant (VDAKYAKETEAVQMEIFALPNLTRRQYTAFIRKLLDDPSQSSELLSEAKKLNDSQAPK; Engineered IL-1R-I binding polypeptide) | – | – | – | – | 0.0027 | 1.3e+07 | 9.68 | 8.17 | – | 57 | pIC50 [3, 16]: 9.05 |
| Z16169: IL-1R-I binding Z variant (VDAKYAKETEEAQMEIFYLPNLTRRQYTAFIRKLLDDPSQSSELLSEAKKLNDSQAPK; Engineered IL-1R-I binding polypeptide) | 0.001 | 2.6e+06 | 9.41 | 9.12 | – | – | – | – | 48 | – | – |
| Z16377: IL-1R-I binding Z variant (VDAKYAKETERAQMEIFYLPNLTRKQYTAFIRKLLDDPSQSSELLSEAKKLNDSQAPK; Engineered IL-1R-I binding polypeptide) | 0.0011 | 2.1e+06 | 9.27 | 8.51 | – | – | – | – | 52 | – | – |
| Z12917: IL-1R-I binding Z variant (VDAKYAKEARQAYAEIYLLPNLTRRQYTAFIRKLLDDPSQSSELLSEAKKLNDSQAPK; Engineered IL-1R-I binding polypeptide) | – | – | – | – | – | – | – | – | – | – | pKd [1, 17]: 8.10; pIC50 [3, 18]: 7.96; Tm (° C.) [4]: 56 °C |

Second part, led by results:

| koff [1, 7] [s⁻¹] | kon [1, 7] [M⁻¹ s⁻¹] | pKd [1, 8] | pIC50 [3, 10] | koff [1, 13] [s⁻¹] | kon [1, 13] [M⁻¹ s⁻¹] | pKd [1, 14] | pKd [2, 15] | Substance | Melting temperatures (Tm) ([4]; Table 13) [°C] | Melting temperatures (Tm) ([4]; Table 21) [°C] | further results |
| --- | --- | --- | --- | --- | --- | --- | --- | --- | --- | --- | --- |
| 0.00067 | 4.4e+06 | 9.82 | > 9.30 | – | – | – | – | Z18557: IL-1R-I binding Z variant with valine in position 12 (VDAKYAKEIEAVQMEIFYLPNLTRKQYTAFIRKLFDDPSQSSELLSEAKKLNDSQAPK; Engineered IL-1R-I binding polypeptide) | 60 | – | pKd [1, 9]: 9.85; pKd ([2]; His6-tagged (Example 5), read-out: KD against cynomolgus IL-1R-I): 8.12; pIC50 [3, 11]: > 9.30; pIC50 [3, 12]: 9.22 |
| – | – | – | – | 0.0025 | 1.8e+07 | 9.85 | 8.48 | Z18800: IL-1R-I binding Z variant (VDAKYAKEIEEIQMEIFRLPNLTRRQYTAFIRKLLDDPSQSSELLSEAKKLNDSQAPK; Engineered IL-1R-I binding polypeptide) | – | 67 | – |
| – | – | 9.29 | – | – | – | – | – | Z12967: IL-1R-I binding Z variant (VDAKYAKEAHRAQMEIFALPNLTRRQYTAFIRKLLDDPSQSSELLSEAKKLNDSQAPK; Engineered IL-1R-I binding polypeptide) | – | – | pKd [1, 17]: 8.92; pKd [1, 9]: 9.09; pKd ([2]; His6-tagged Z variant, Biacore 2000 (Example 2), read-out: affinity (KD) to cynomolgus IL-1R-I): 7.46; pIC50 [3, 18]: 8.96; pIC50 [3, 11]: 8.28; pIC50 [3, 12]: 8.13; Tm (° C.) [4]: 58 °C |

pEC50, pIC50, pKd: −log10 of the molar value. Where two headings read alike, the source gives them in different places.
